From US11078245B2, “Colon and pancreas cancer peptidomimetics” (PRECISION BIOLOGICS, INC., priority 2010, dated 2021)

Tested on: CFPAC1 cells
Assay: NEO-101-coupled Dynal beads rosette assay
Type: cell-based, human
Settings: antibody-coupled Dynal beads with TBS, no M13 clone
Description: The M13 clones identified by the biopanning were also immunoassayed using magnetic beads. Aliquots of 5 μl M13 phage (10^11/10 μl) were mixed with 10 μl NEO-101-coupled Dynal® beads at RT for 20 min on a rotator. CFPAC1 cells (30 μl of 10^6 cells/ml) were added and incubated at 4° C. for 30 min. Rosetted cells were counted (>8 beads/cell).

B1: H16C3: antibody coupled to Dynal beads, specificity control (antibody)
heavy: QVQLVQSGAEVKKPGASVKVSCKASGYTFTDYAMHWVRQAPGQRLEWMGLISTYSGDTKYNQNFQGRVTMTVDKSASTAYMELSSLRSEDTAVYYCARGDYSGSRYWFAYWGQGTLVTVSS[omitted - human IgG1 constant region]
light: DIQMTQSPSSLSASVGDRVTITCQASENIYGALNWYQRKPGKSPKLLIYGASNLATGMPSRFSGSGSGTDYTFTISSLQPEDIATYYCQQVLSSPYTFGGGTKLEIKRTVAAPSVFIFPPSDEQLKSGTASVVCLLNNFYPREAKVQWKVDNALQSGNSQESVTEQDSKDSTYSLSSTLTLSKADYEKHKVYACEVTHQGLSSPVTKSFNRGEC
In the case of B1, the “Positive rosette cells (%)” value is reported as 60%.
